For 72 sequences, binding signal (log2 normalized intensity) results are on record in article PMC10726135.

The list shows a part of the results. At the low end of the ranking, values are background and their order means little. Measured with an extract: partners may take part in the binding.

For the test, the target named is T1, HNF4alpha2 (COS-7 nuclear extract) (UniProt P41235).
T1 sequence: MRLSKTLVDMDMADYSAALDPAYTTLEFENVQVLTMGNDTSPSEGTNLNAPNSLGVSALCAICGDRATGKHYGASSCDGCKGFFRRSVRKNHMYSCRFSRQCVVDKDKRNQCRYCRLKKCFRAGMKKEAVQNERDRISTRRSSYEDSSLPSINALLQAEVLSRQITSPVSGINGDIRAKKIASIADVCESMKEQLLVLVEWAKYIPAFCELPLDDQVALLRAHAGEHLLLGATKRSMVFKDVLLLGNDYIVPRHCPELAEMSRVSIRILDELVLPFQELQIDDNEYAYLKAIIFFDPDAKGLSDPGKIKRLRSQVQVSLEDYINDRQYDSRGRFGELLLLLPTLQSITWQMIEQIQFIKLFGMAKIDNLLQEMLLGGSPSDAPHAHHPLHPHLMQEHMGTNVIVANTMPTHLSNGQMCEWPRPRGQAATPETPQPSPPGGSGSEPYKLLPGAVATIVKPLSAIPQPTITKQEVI
Description: protein-binding microarray. The following applies: COS-7 nuclear extract on double-stranded Agilent 4x180k PBM; binding buffer, salt, pH and temperature not given; high values mean tight binding; double strand, one strand shown; sequences stand for … in …GCCTAGGGAGATTAGAGTATCGGTCGA
Consider GCTGAAGGGAAGGCTGCCGTCCTCAGTGAA, for which the binding signal (log2 normalized intensity) is -1.2. With AGCCAAGTTTTGCAACATACTGAAAAAGGG the figure was -1.19.

For GCAGAAACAAATACAGACACACCTAGGGAG, the binding signal (log2 normalized intensity) was -1.2.

Regarding AACTCTCAGTTTGGCTCTTATGTCCCTCCT, the binding signal (log2 normalized intensity) came to 1.35. For the sequence AGAGGCCTGGGAATGCCTAGGGGGAAGCCC, the binding signal (log2 normalized intensity) is -1.16.

Turning to CTTTGCCCCCAGCCTCTCACAGTAGCCCAG, the binding signal (log2 normalized intensity) came out at 4.6.

As for AAACCAACACCAGCAACCGCCTACCTTTGG, the binding signal (log2 normalized intensity) is -1.12. For the sequence TGGCCTGGTTCCTTCTCAGTGACAAAAACA, the binding signal (log2 normalized intensity) came to 1.21. Then CCTTTGAACCAGAGAAGATTCCAGAGGGAG, with -1.07; and CAGATCAAAGGACATTTCTAAAAATAGCCT, with -1.04.

Take GCTGGTTGCCCCTTTGACCCTCGGGCCTCC: the binding signal (log2 normalized intensity) was determined as 5.62. With TGCTCTTTCTTCTCTGTAGGTAAACAGTGA the figure was 2.07; with ATTTGTCCGGGTATGTTCTTAAGATAAGGA, 1.31. For the sequence AACTTTGGAAATGCAAACACCTACATTCAA, the binding signal (log2 normalized intensity) was -1.08. For the sequence AAGCGATCTTTGCATTCCCAAAATGATTCC, the binding signal (log2 normalized intensity) stood at 0.0417.

Turning to CTTGGGGCTGATATCTCTCTGGCTGGTGGG, the binding signal (log2 normalized intensity) came out at 0.505. On to GGTTTGGGGTCTAGAACAGCTCCTTTGAAG, for which the binding signal (log2 normalized intensity) is -1.08. With GGAGCACACCAGGCCCTCGGCATCATGCCC the figure was -1.12; with TGTCCTTCATCTATCTCCTTCTTCCCTTCT, 0.428; with CTCTAGGCATTGGAGATATGATAGCTGACA, -0.789. With TTTTCTCATAAAACACCCACCTTGTTATCT, the binding signal (log2 normalized intensity) worked out at 1.81. Then AAATCATGGATCTGTGCTCAGATCCTGCTC, with -0.996; and AGGGGTGGATCTCTGTCATGTTCAATATAC, with 1.9; and CAGCTCGTGGGCATGCCTCCCAGAGCATTG, with -1.09. Regarding GGCGAATGTCAAAGGTCTTTGGTGGTGGGG, the binding signal (log2 normalized intensity) was 2.23. As to TGCAGCCTTGGACTCCTGGACTCAAGGAAT, the binding signal (log2 normalized intensity) came out at 4. With TACTTAAGATAGAGGCTTTAGCAATAAATT the figure was -1.26; with ATGGTATGCTCTGATATTCTCTTATCTACT, 0.326. With TTCATGATCAGGCAAGTGGTCATGTAGGTG, the binding signal (log2 normalized intensity) worked out at 2.01.

Consider GTTTTTCCTTGATTAAACTTTAGTCAGATT, for which the binding signal (log2 normalized intensity) worked out at 2.31. On to TGGACTTTAAACATTCCCACCTAAGACATA, for which the binding signal (log2 normalized intensity) is 2.09. Take CCGGCCGGCGGGGTCACGTGGGGCCGGTAC: the binding signal (log2 normalized intensity) is 3.38. With TTGGGAGCAATTTAGCAGCACCATCCTACA the figure was -1.01.

In the case of GGAACGTCACACTGAAAGCTATCCCTCCAT, the binding signal (log2 normalized intensity) is -0.119.

As to AAACTCTTTTCCTTTTTGCATGAGAATCTG, the binding signal (log2 normalized intensity) is 1.5. With TTTAGGCAGTTTTTGATCAAGGAGGACTTT the figure was 3.93; with CTGAGGCCAAAAGTCTCAGAAGCTGGGAGA, -1.16; with GCAGCAATCAGCTCCTCAACCAAGGGATCA, -1.12. For the sequence AAAGAGTGATTGAAGAAGTGGTTCTTTAGA, the binding signal (log2 normalized intensity) is 0.0315. Take TCAACTCTGCCATTGTCGTGGTTGTAGAAA: the binding signal (log2 normalized intensity) was 1.07. For the sequence ACTTAGTCTCCAGCCCCCAGAGGTCACACT, the binding signal (log2 normalized intensity) is 3.86.

For AGCTATGGGCAGAAAAAAATGAGTCACAAT, the binding signal (log2 normalized intensity) is -0.963.

CAGGCATTCCACACTGCAGGCTCTGTCCCC: the binding signal (log2 normalized intensity) turned out to be 0.94.

For TAAAAACACGAGCTATTGCGAGGTTCCATG, the binding signal (log2 normalized intensity) came to 0.143. For the sequence TGAAACAAGCCCATCTTCCAGAAAACGGGA, the binding signal (log2 normalized intensity) was -1.33. Take GTGGCCCAAGATGGAGATGAGAAACTTATT: the binding signal (log2 normalized intensity) was -1.16. TCAACTAAGACAGACCCAAAGGTTAAGGAA: the binding signal (log2 normalized intensity) was -0.888. For the sequence TCTGAAAAAAGCTATCATTTGTCACTTGGA, the binding signal (log2 normalized intensity) turned out to be 1.38.

With GCACACACCAAAGCCCAAGGGATCGTCCAA, the binding signal (log2 normalized intensity) is -1.06.

For the sequence ATAAGGTAACAGGCCAAAGGGCAAGAACAA, the binding signal (log2 normalized intensity) came to 1.83.

Consider CAGACCCAAAGGTTAAGGAAACAAGGGTAC, for which the binding signal (log2 normalized intensity) is -0.063.

On to TGAGATTACGTAAGTGAAAGTACACAGTGC, for which the binding signal (log2 normalized intensity) amounted to 0.781.

Take GAGGGAGAATAAGGGTTCATCTGACTGGAA: the binding signal (log2 normalized intensity) was -0.852. Then TGACCGTTCTCTCCGGGTAAAGGTGAAGGC, with 1.03. Then GAACGCTGCGCATACCATATGCATTCCTGC, with -1.13; and ACTGGTTCCTGCACCCGGGCAGCCTGTGGC, with -1.21.

Consider TGGACCAAGCTCTAGCATCCCTCTCTTGCT, for which the binding signal (log2 normalized intensity) was -1.18.

Turning to CCAGGACCTTTGCTCATGTCCTCTTGCTTC, the binding signal (log2 normalized intensity) stood at 1.57.

Regarding AACTCCCTCAGAGATGTTTAGTGAGCTGTC, the binding signal (log2 normalized intensity) was 0.709. Consider CATCTTCACGCAATACTAGCAATAACCACA, for which the binding signal (log2 normalized intensity) was -0.153.

In the case of GCATTTTTAAAATGTTTCAAAGTTTTTCCC, the binding signal (log2 normalized intensity) is -0.41.

For the sequence TTCTATCCCCTTATCTAAATGGAGTTACTG, the binding signal (log2 normalized intensity) was determined as 0.934.

With CCTGATGAAGTAAATGCAGTTTGTCAAGTG, the binding signal (log2 normalized intensity) amounted to 1.28. With CTCTGGCCGGAGGGGAGGTTATCTCGGGGC the figure was -1.16; with TGATTATAAACCTGCCTACATCAAGAGGAT, -0.935. As for CTCTCGGGCCAGCTGTACAAATAAAGGATG, the binding signal (log2 normalized intensity) was -0.146. Then TGAGCCTCCTCCCTCTCTCTCTTAAGAACG, with 1.05. Regarding TCTCAAAAGTTTTTCCCTTCTGTTAGAATG, the binding signal (log2 normalized intensity) was -0.592. Turning to AGGTATTGCCCAGTATTGATGTGAGGGTAG, the binding signal (log2 normalized intensity) came out at 1.86. Regarding TAGTTAGAGTCACTGATAAGTCTGCTTGCC, the binding signal (log2 normalized intensity) is -0.728.

For AGGTTTGGCTGAGAGGGATAAAAGGGGAAA, the binding signal (log2 normalized intensity) is -1.14. In the case of CACCCCAGTGTGTTGCATGCCACAGCGCCC, the binding signal (log2 normalized intensity) came to 1.34.
